Measurements: ChEMBL document CHEMBL1201862, “PubChem BioAssay data set” (2004)
Calls of active or inactive are those of the source. Cut-off read from the data, not from the text of the source: active = IC50 of 10 µM or less and inactive = more.

Target: T1, Nuclear receptor subfamily 0 group B member 1 (Homo sapiens, UniProt P51843)
T1 sequence (P51843 whole entry): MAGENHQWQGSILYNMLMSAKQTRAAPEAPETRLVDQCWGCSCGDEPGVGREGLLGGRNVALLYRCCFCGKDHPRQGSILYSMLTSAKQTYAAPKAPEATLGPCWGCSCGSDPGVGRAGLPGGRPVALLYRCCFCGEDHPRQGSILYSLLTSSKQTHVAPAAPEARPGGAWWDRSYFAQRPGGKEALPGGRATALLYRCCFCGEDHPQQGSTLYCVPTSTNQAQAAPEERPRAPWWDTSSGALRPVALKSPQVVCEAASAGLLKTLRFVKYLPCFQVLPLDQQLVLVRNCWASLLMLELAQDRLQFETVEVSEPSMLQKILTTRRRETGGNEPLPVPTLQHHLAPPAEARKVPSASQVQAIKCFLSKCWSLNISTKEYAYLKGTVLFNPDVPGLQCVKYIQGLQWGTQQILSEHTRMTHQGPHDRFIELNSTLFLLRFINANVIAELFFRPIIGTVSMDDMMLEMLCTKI
Type: functional, cell-based
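Note: HEK293T cells transfected with SF-1 and DAX-1 plus StAR promoter luciferase reporter.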

Structure (SMILES): CCOC(=O)NC1CCc2cc(OC)c(OC)c(OC)c2-c2ccc(OC)c(=O)cc21 (stereo unspecified)
- IC50: active: > 30.9 nM
